# According to the supplement of paper PMC12217912:
# Some of the results follow. Sequences were assembled here from the parent chain. Values near 0.05 are background.
# B1: TEV protease; numbered along this chain (parent)
# chain: MGESLFKGPRDYNPISSSICHLTNESDGHTTSLYGIGFGPFIITNKHLFRRNNGTLVVQSLHGVFKVKDTTTLQQHLVDGRDMIIIRMPKDFPPFPQKLKFREPQREERICLVTTNFQTKSMSSMVSDTSCTFPSGDGIFWKHWIQTKDGQCGSPLVSTRDGFIVGIHSASNFTNTNNYFTSVPKNFMELLTNQEAQQWVSGWRLNADSVLWGGHKVFMVKPEEPFQPVKEATQL
# Variants of: B1
# Assay: raw area under fraction-flipped curve 0-4 h after induction (AUC4h, not background-subtracted), DNA-recorder readout of cleavage of the substrate (dimensionless); higher = more cleavage of the substrate by the protease variant
# Conditions: temperature: 34 °C; time window: 0-4 h after rhamnose induction
# Description: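 In vivo DNA recorder in E. coli TOP10(DE3) ΔrhaA at 34 °C. Each TEVp single-site mutant (parent TEVp 0) is paired with a single-site variant of the 7-mer TEVs (canonical ENLYFQ|S). The substrate sits between flexible linkers in a Bxb1-sfGFP-TEVs-SsrA fusion, so cleavage stabilises Bxb1 and speeds flipping of a recombination array, read by NGS. The value is the raw area under the fraction-flipped curve over 0-4 h after rhamnose induction (AUC4h), with ≥20 reads per time point. It is not background-subtracted; inactive controls average about 0.047.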
# 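Note: Bxb1 expression induced with 0.2% (w/v) L-rhamnose at OD600 near 0.5, cultures sampled hourly, flipped fraction per protease–substrate barcode pair counted by paired-end Illumina sequencing.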
Variant,area with substrate ENLDFQS,area with substrate ENLFFQS,area with substrate ENLGFQS,area with substrate ENLHFQS,area with substrate ENLIFQS,area with substrate ENLKFQS,area with substrate ENLNFQS,area with substrate ENLPFQS,area with substrate ENLRFQS,area with substrate ENLSFQS,area with substrate ENLTFQS,area with substrate ENLVFQS,area with substrate ENLWFQS,area with substrate ENLEFQS,area with substrate ENLLFQS,area with substrate ENLMFQS,area with substrate ENLQFQS
R51M,0.0594,0.085,0.0653,0.0786,0.0949,0.0812,0.0734,0.0603,0.0811,0.0504,0.082,0.0744,0.066,,,,
K7A,0.0881,0.0952,,,0.0718,,0.0767,0.0443,,,,,0.0847,0.0944,0.0852,0.0839,
N52M,0.0625,0.0644,,,,0.076,0.108,,,0.0708,,0.0642,,,0.0612,0.0394,
L205N,0.0646,,,,0.0694,,0.0684,,,0.0621,,,,0.0626,0.0632,0.0789,
M125L,0.0604,0.0798,0.102,0.0843,0.0742,0.0741,0.0733,0.0703,0.0809,0.0611,,0.0811,,0.0653,,,0.0594
P225W,0.0812,0.101,,,,0.0728,,0.0667,0.0458,0.051,0.0728,0.0548,0.0482,0.0735,0.0649,0.0581,0.0776
I145C,0.0623,0.107,0.0723,0.0728,0.0754,0.097,0.0724,,0.0703,0.0588,,0.0827,0.0752,0.0706,,0.0817,0.0871
L61A,0.0825,0.0812,,0.0696,,0.0705,0.0447,0.0518,0.0723,0.0626,,,,,,,0.0653
D79V,0.0663,0.0768,0.075,0.0691,0.0819,0.0734,0.0694,0.0718,,0.0623,,,0.0629,0.0836,0.053,,0.0655
T71A,0.0589,0.0816,0.075,0.0509,0.0754,0.0675,0.0618,0.0571,0.0716,0.061,,0.0918,0.0587,,0.0676,0.0701,
L191I,0.0596,0.0856,,0.0763,0.0625,0.0675,0.0616,,0.053,0.0523,,,,,0.061,,0.0525
I164E,0.0643,0.0441,0.0551,0.0512,,0.0598,0.0559,0.0507,0.0502,0.0506,,0.0598,,0.0539,0.0497,,0.0396
K98Q,0.0672,0.0901,0.05,0.0671,0.0851,0.0879,0.0701,0.0637,0.0863,,,,0.0694,0.0748,0.0823,,0.0516
V157R,0.0612,0.0627,0.0749,0.0629,0.0621,0.0923,0.0725,,0.0631,0.0596,,,0.0684,0.0584,0.0464,0.0704,0.052
M188L,0.0522,0.0749,,0.0807,0.0557,0.0764,,0.0672,,0.0777,,0.0812,,,0.0544,,0.0488
W203R,0.0499,0.064,0.0579,0.0666,0.0504,0.0841,0.0623,0.0637,,0.0659,,,0.066,,0.0645,0.0662,0.073

Variant,area with substrate ENLDFQS,area with substrate ENLFFQS,area with substrate ENLGFQS,area with substrate ENLHFQS,area with substrate ENLIFQS,area with substrate ENLKFQS,area with substrate ENLNFQS,area with substrate ENLPFQS,area with substrate ENLRFQS,area with substrate ENLSFQS,area with substrate ENLTFQS,area with substrate ENLVFQS,area with substrate ENLWFQS,area with substrate ENLEFQS,area with substrate ENLLFQS,area with substrate ENLMFQS,area with substrate ENLQFQS
K68F,0.0476,0.0836,,,0.0635,0.0743,0.052,,,0.0669,,,,,,,
R204E,0.0664,0.0872,,,,0.0938,0.0663,0.0692,0.0788,0.0635,,,,,,0.0762,0.0684
Q118H,0.0938,0.0936,,0.0782,,0.0488,0.0672,0.0654,0.0553,,,,0.0711,,0.0719,,0.0677
V210G,0.0644,0.0383,0.0825,,0.0571,,0.0583,0.0612,0.0655,0.0499,,,,0.0669,0.0738,,0.0572
V113C,0.0677,0.101,,0.0565,,0.0716,0.0755,0.073,,0.0583,,,,,,,0.057
G202V,0.0614,0.0573,,0.07,,0.0576,0.0528,0.0679,,0.064,,,0.0534,0.0565,0.063,,0.0604
L73G,0.0565,0.0519,,0.0536,0.0432,0.0573,,0.051,0.0614,,0.0592,,,0.0412,0.0342,0.049,
Q118F,0.059,0.0767,,0.0629,,0.0882,0.0578,0.012,0.0602,0.0727,0.0617,,,0.0739,,,
S169A,0.0414,0.101,,0.0569,0.0634,0.0842,0.0585,,0.0657,,,,0.0582,,0.0806,,0.0542
Q197C,0.0619,,0.0757,0.0717,,0.0979,0.0558,,,,,0.073,0.0711,,0.0907,0.0933,
K185P,0.061,0.0933,,,,,0.0681,0.0647,0.0798,0.0923,,,,,,,0.0849
P222V,0.0631,0.0792,,0.0584,0.058,0.0787,0.0758,0.0601,0.0717,0.0663,0.0561,0.088,0.0631,0.0669,0.0646,,0.0703
G153Y,0.0577,0.0539,0.0415,0.0427,0.0546,0.0532,0.0468,0.06,,0.0545,,,0.0484,0.048,,,
E223F,0.0465,0.0753,,0.0564,0.0628,0.0622,0.062,0.0262,0.0421,,,,,0.0675,0.0538,,0.0639
E103K,0.0674,0.0812,0.0728,0.0523,0.0879,0.057,0.06,0.0494,0.0776,0.0838,,,0.0604,0.068,,0.0774,0.0793
